Measured values as given in US20060240417A1, “Agent controlling the apoptosis induction by p73” (Hisamitsu Pharmaceutical Co., Inc., priority 2002, published 2006).

Tested on: SH-SY5Y cells
Assay: MTT survival assay of cisplatin-treated cells
Details: cisplatin 0, 5, 10 and 25 μM, 24 hours

Compound: N.N.[Cl][Pt][Cl] [cisplatin]
- surviving cell count by MTT assay: reduction in surviving cells which was dependent on cisplatin dose
